{"source": "PubChem BioAssay AID485297", "about": "(National Center for Advancing Translational Sciences (NCATS), 2010)", "note": "Among all 320,000 compounds or so, about 9,100 (2.8%) were called active. This list was built around the results that the source calls inconclusive (neither active nor inactive); the mix of calls is not that of the screen. Calls come from the whole dose curve; as a rule, active = well fitted activation curve with a large enough effect; inconclusive = small, poorly fitted or top-dose-only effect; inactive = no such curve, though single readings can be large or run the other way. No potency is given beside an inconclusive call; the fits are too rough. Potency is the fitted concentration of half-maximal effect; tags give direction and shape of the fitted curve."}
{"assay": "qHTS Assay for Rab9 Promoter Activators; note: nearly all actives have a fitted effect of over 60% in size; for activation, negative = inhibition: % of control where 0% means no effect", "settings": "Huh7 Rab9 promoter-luciferase reporter, luminescence, 24 h; series mostly up to 9.22 µM", "summary_of_the_method": "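Rab9 promoter-driven luciferase in stably transfected Huh7 cells; 1500 cells/well rested 2 h, exposed to compound in DMSO for 24 h at 37 °C, 5% CO2. Luminescence read 10 min after adding luciferase reagent at ambient temperature.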"}
{"compound": "CCCCOC(=O)c1ccc(NC(=O)c2cnccn2)cc1", "Potency": "inconclusive [activator, partial curve]"}
{"compound": "CC(=O)Nc1ccc(-c2cc(-c3ccccc3)nc(-c3ccccc3)n2)cc1", "Potency": "inactive"}
{"compound": "O=C(Cc1nc2ccccc2[nH]1)c1ccc(Br)cc1", "Potency": "inconclusive [activator, partial curve, poor fit]"}
{"compound": "O=C(CN1C(=O)c2ccccc2S1(=O)=O)c1ccc(O)c(O)c1", "Potency": "inconclusive [activator, partial curve]"}
{"compound": "COc1cc(NC2c3ccccc3C(=O)N2c2ccc(C)cn2)cc(OC)c1OC", "note": "(stereo not drawn)", "Potency": "inconclusive [activator, partial curve]"}
{"compound": "Cc1ccc(C(=O)Nc2cccc(C(=O)N3CCOCC3)c2)cc1Cl", "Potency": "inconclusive [activator, partial curve]"}
{"compound": "c1ccc(CNc2ncnc3c2ncn3C2CCCCO2)cc1", "note": "(stereo not drawn)", "Potency": "inconclusive [activator, partial curve]"}
{"compound": "O=C(c1cc(-c2cccc(O)c2)on1)N1CCOCC1", "Potency": "inconclusive [activator, single point]"}
{"compound": "CC(Cc1cccs1)NC(=O)Nc1cccc(Cl)c1", "note": "(stereo not drawn)", "Potency": "inconclusive [activator, single point]"}
{"compound": "CC(=O)Oc1ccccc1/C=C/c1nc2ccccc2c(=O)o1", "Potency": "inconclusive [activator, partial curve]"}
{"compound": "c1ccc(-n2ncc3c(NCc4ccco4)ncnc32)cc1", "Potency": "inconclusive [activator, partial curve]"}
{"compound": "O=[N+]([O-])c1ccccc1/C=N/N1CCN(c2ccccn2)CC1", "Potency": "inconclusive [activator, single point]"}
{"compound": "CCC(=O)Nc1ccc2nc(C3CC3)n(Cc3ccc(C(C)(C)C)cc3)c(=O)c2c1", "Potency": "inconclusive [activator, full curve, poor fit]"}
{"compound": "CC(=O)Nc1ccc(N=NC2C(=O)N(C(N)=S)N=C2C)cc1", "note": "(stereo not drawn)", "Potency": "inconclusive [activator, single point]"}
{"compound": "O=C(/C=C/c1ccccc1Cl)Nc1cccc(S(=O)(=O)NC2=NCCCCC2)c1", "Potency": "inconclusive [activator, single point]"}
{"compound": "COc1ccc(C(CNC(=O)c2ccco2)N2CCCC2)cc1", "note": "(stereo not drawn)", "Potency": "inconclusive [activator, single point]"}
{"compound": "O=C(N/N=C/c1cccc(Br)c1)c1ccc(N2CCCC2=O)cc1", "Potency": "inactive"}
{"compound": "O=C(COC(=O)C1CCC1)c1c[nH]c2ccccc12", "Potency": "inactive"}
{"compound": "Cc1ccc2nc(NC(=O)COC(=O)CSc3nc(C)cc(C)n3)sc2c1", "Potency": "inconclusive [activator, partial curve]"}
{"compound": "O=C(Nc1ccc(C(=O)N2CCCCC2)cc1)C1=CSCCO1", "Potency": "inconclusive [activator, partial curve]"}
{"compound": "O=C(CN(Cc1ccco1)C(=O)CNS(=O)(=O)c1ccc(F)cc1)NCc1ccccc1", "Potency": "inactive"}
{"compound": "CCc1nnc(NC(=O)c2cc(-c3ccccn3)nc3ccccc23)s1", "Potency": "inconclusive [activator, single point]"}
{"compound": "Oc1ccc(/C=N/NC(=S)NC2CC3CCC2C3)cc1", "note": "(stereo not drawn)", "Potency": "inconclusive [activator, partial curve]"}
{"compound": "Cc1c(Cl)ccc2sc(NC(=O)c3ccco3)nc12", "Potency": "active: 3.98 µM"}
{"compound": "Cc1ccc(OCc2cc(C(=O)N(C)Cc3cnn(-c4ccccc4C)c3)no2)cn1", "Potency": "inactive"}
{"compound": "Cc1ccnc(Nc2nc(-c3ccc(O)cc3O)cs2)c1", "Potency": "inconclusive [activator, partial curve]"}
{"compound": "COc1ccc(NC(=S)Nc2cc(C)ccn2)c(OC)c1", "Potency": "inconclusive [activator, single point]"}
{"compound": "CC1CCC(NC(=O)CNC(=O)c2cccs2)CC1", "note": "(stereo not drawn)", "Potency": "active: 3.98 µM"}
{"compound": "CCOc1ccc2nc(SCc3ccc(C(=O)OC)o3)[nH]c2c1", "Potency": "inconclusive [activator, single point]"}
{"compound": "Fc1ccc2nc(Nc3nc4c(s3)CCCC4)sc2c1", "Potency": "inconclusive [activator, single point]"}
{"compound": "COc1ccc(C(=O)Nc2ccccc2C(=O)NCc2ccco2)cc1OC", "Potency": "inactive"}
{"compound": "COc1ccc2c(c1)CC/C2=N\\OC(=O)c1cccc(C)c1", "Potency": "inconclusive [activator, single point]"}
{"compound": "O=C(NCc1cccs1)C1CCCN1C(=O)Nc1ccc(F)cc1", "note": "(stereo not drawn)", "Potency": "inactive"}
{"compound": "c1ccc(-c2cc(-c3ccccc3)on2)cc1", "Potency": "active: 1.41 µM"}
{"compound": "NNC(=O)c1ccc(COc2ccc3c(c2)CCC3)cc1", "Potency": "inconclusive [activator, partial curve]"}
{"compound": "COc1ccccc1NC(=O)c1cc2cc(Br)ccc2oc1=N", "activation, negative = inhibition": "inactive: -1.43% [at 1.84 µM]"}
{"compound": "COC(=O)c1ccc(Oc2nc(Nc3ccc(C)c(C)c3)nc(N(C)C)n2)cc1", "Potency": "inactive"}
{"compound": "O=C(Nc1ccc2oc(-c3ccc(F)cc3)nc2c1)c1ccccc1F", "Potency": "inconclusive [activator, partial curve]"}
{"compound": "CCCCCCCCCC(=O)NC(CN1CCOCC1)[C@H](O)c1ccccc1", "note": "(stereo partly drawn)", "Potency": "inactive"}
{"compound": "CCC(C)NC(=O)C1CCCN(c2nc(C)cc(OC)n2)C1", "note": "(stereo not drawn)", "Potency": "inactive"}
{"compound": "CCc1nn(C(CC)C(=O)NCc2cccc(OC)c2)c(=O)c2cc3occc3n12", "note": "(stereo not drawn)", "Potency": "inactive"}
{"compound": "COc1cc(C(=O)O)c2ccccc2n1", "Potency": "inactive"}
{"compound": "COc1ccc(C2=CC(c3sccc3C)n3nnnc3N2)cc1", "note": "(stereo not drawn)", "Potency": "active: 2.82 µM"}
{"compound": "COc1ccc(OC)c(CNC(=O)CCSCc2ccc(F)cc2Cl)c1", "Potency": "inactive"}
{"compound": "Cc1[nH]n(-c2ccccc2)c(=O)c1/C=N\\NC(=O)C1COc2ccccc2O1", "note": "(stereo not drawn)", "Potency": "inconclusive [activator, single point]"}
{"compound": "NS(=O)(=O)c1ccc(NC(=O)/C=C/c2ccco2)cc1", "Potency": "inconclusive [activator, single point]"}
{"compound": "CC1CC(C)CN(CC(=O)Nc2ccc3c(c2)OCCO3)C1", "note": "(stereo not drawn)", "Potency": "inconclusive [activator, partial curve]"}
{"compound": "O=C(NC(=S)Nc1ccc(N2CCOCC2)cc1)c1ccco1", "Potency": "inconclusive [activator, partial curve]"}
